About 400 (5.1%) of roughly 7,900 compounds showed an effect of 50% or more. The list shows a part of the results.

The target of this experiment is Parkinson's disease protein 7 (PARK7/DJ1) (human, UniProt Q99497). Briefly: primary screen, percent inhibition; read as competition with a fluorescent probe by fluorescence polarization; higher = more effect of the substance. The settings on record: 100 µM. The method, boiled down: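 Covalent fragments at 100 μM final were incubated 2 h with 0.2 μM PARK7, then 20 nM probe JYQ-107 added for a further 2 h. Fluorescence polarization read at 480/520 nm; relative FP loss versus reference controls gave remaining enzyme activity.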
Parkinson's disease protein 7 (PARK7/DJ1), sequence (Q99497 whole entry, looked up, the tested form may be a part): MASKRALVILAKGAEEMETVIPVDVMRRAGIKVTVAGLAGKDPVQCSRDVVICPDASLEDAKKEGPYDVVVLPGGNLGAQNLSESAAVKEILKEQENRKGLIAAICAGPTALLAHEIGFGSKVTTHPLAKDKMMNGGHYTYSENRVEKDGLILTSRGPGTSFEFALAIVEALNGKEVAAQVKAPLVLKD
`CCOC(=O)c1c(NC(=O)CCl)sc(C)c1C`: the Inhibition % stood at 2.6%.

As to `CC1(C)OB(c2ccc3ccc(N)cc3c2)OC1(C)C`, the Inhibition % came out at 86.8%.

On to `CC1CC(Sc2nnc(C(C)(C)C)o2)C(=O)O1` (stereo not shown), for which the Inhibition % is recorded as 46.1%.

For `OB(O)c1ccccc1CN1CCCC1`, the Inhibition % is reported as 5.6%.

Regarding `C=CC(=O)N1CCC(COc2ccccc2)C1` (stereo not shown), the Inhibition % worked out at 11.5%.

With `Cc1ccc(NS(=O)(=O)CCCS(=O)(=O)F)nc1`, the Inhibition % turned out to be 80.1%.

As for `C=CC(=O)N1CCOC(Cn2nc(C)nc2C)C1` (stereo not shown), the Inhibition % amounted to 17.3%.

Regarding `C=CC(=O)N1CCSCC1C1CCC1` (stereo not shown), the Inhibition % is 10.3%.

Consider `Cc1cccc(-n2cc(C(=O)CCl)nn2)c1`, for which the Inhibition % was 95.4%.

Regarding `Cc1cc(C#N)ccc1S(=O)(=O)OCC(F)(F)F`, the Inhibition % worked out at 10.4%.

For `COc1cc(C=C(C#N)c2ccccn2)ccc1O`, the Inhibition % is given as 24%.

Regarding `CC#CCCn1cc(C#N)nn1`, the Inhibition % was 1.89%.

As to `Cc1ccc(C(=O)Cn2cnc(C#N)n2)s1`, the Inhibition % was 8.98%.

For the molecule `CC1(C)OB([C@@H]2C[C@H]2C(=O)O)OC1(C)C` (racemic), the Inhibition % stood at 8.39%.

As to `Cc1nnnn1-c1ccc(F)c(NC(=O)CCl)c1`, the Inhibition % was 4.03%.

As for `N#Cc1ncn(CC(=O)c2ccc3c(c2)CCC3)n1`, the Inhibition % came out at 1.26%.

For `C=CC(=O)NC1CCCOCC1` (stereo not shown), the Inhibition % is given as -1.46%.

On to `O=S(=O)(c1cc(Cl)ccc1Cl)n1cccn1`, for which the Inhibition % was 5.69%.

Regarding `COc1ccc(C=c2sc(=CC#N)n(C)c2=O)cc1`, the Inhibition % is 4.53%.

Take `C=CC(=O)NCC1CNC(=O)C1` (stereo not shown): the Inhibition % was 24.1%.

On to `C=CC(=O)Nc1ccccc1OC`, for which the Inhibition % was 0.453%.

As for `C=CC(=O)NCC1(CF)CCOCC1`, the Inhibition % is given as 9.48%.

As for `C=CC(=O)N1CCOCC2(CC2)C1`, the Inhibition % is 33.9%.

On to `C=CC(=O)NC1CC(OC)C1(C)C` (stereo not shown), for which the Inhibition % is -3.29%.

On to `N#CC(=Cc1ccc(OC(F)F)cc1)C(=O)N1CCCC1`, for which the Inhibition % is listed as 13.2%.

Regarding `Cc1nn(C)c2ncc(NC(=O)CN3CCSC3=O)cc12`, the Inhibition % was 4.2%.

On to `N#Cc1cc(N)c2ccccc2n1`, for which the Inhibition % was 10.9%.

Turning to `Cc1cc(C=C(C#N)C(=O)O)c(C)n1C1CC1`, the Inhibition % is 8.28%.

Turning to `N#Cc1ccc2c(n1)CCCN2C(=O)[C@H]1CCCO1`, the Inhibition % is 3.86%.

In the case of `C=CC(=O)N(C)Cc1ccccc1N1CCCC1`, the Inhibition % was 4.01%.

On to `C=CCc1ccc(B2OC(C)(C)C(C)(C)O2)cc1`, for which the Inhibition % worked out at 2.49%.

Take `Cc1ccc(B2OC(C)(C)C(C)(C)O2)cc1[N+](=O)[O-]`: the Inhibition % is listed as 3.85%.

Consider `Cc1sc2nc(CS)[nH]c(=O)c2c1C`, for which the Inhibition % is 13.9%.

Consider `Cc1ccc(NS(C)(=O)=O)cc1B1OC(C)(C)C(C)(C)O1`, for which the Inhibition % is reported as 1.38%.

In the case of `O=c1[nH]c(S)nc2[nH]ncc12`, the Inhibition % is on record as 4.43%.

In the case of `O=C(CCl)N1CCN(C(=O)Nc2ccccc2)CC1`, the Inhibition % stood at 64.2%.

Take `COc1ccc(NC(=O)c2cccnc2S)cc1Cl`: the Inhibition % was determined as 2.9%.

As to `CC1(C)OB(C2CNC2)OC1(C)C.O=C(O)C(F)(F)F`, the Inhibition % is listed as 11.6%.

With `N#Cc1ccc(NCCOc2ccccc2Cl)cn1`, the Inhibition % is listed as 10.9%.

Consider `Cc1nsc(N[C@@H]2COC(=O)C2)n1`, for which the Inhibition % was found to be 5.93%.

For the molecule `C=CC(=O)N1CCSC2COCCC21` (stereo not shown), the Inhibition % is given as -2.53%.

Consider `C=CC(=O)N1CCN(S(=O)(=O)C2CC2)CC1`, for which the Inhibition % came out at 5.47%.

Take `OB(O)c1ccc2c(c1)CCCC2`: the Inhibition % was found to be 1.74%.

Turning to `CC1CC(Sc2nnnn2-c2ccccc2)C(=O)O1` (stereo not shown), the Inhibition % is recorded as 3.51%.

As to `O=C(NCC1(O)CCc2ccccc21)c1cccnc1S` (stereo not shown), the Inhibition % was 29.7%.

In the case of `O=C(CSC(F)(F)F)Nc1cccc(S(=O)(=O)F)c1`, the Inhibition % came to 99.8%.

For the molecule `O=C(CCl)Nc1cc(-c2ccccc2)nn1-c1ccccc1`, the Inhibition % is 28.3%.

Regarding `CCCOc1ccc(S(=O)(=O)n2ccnc2)cc1`, the Inhibition % is recorded as 15%.

In the case of `O=C(NCCCl)C1CCCC1`, the Inhibition % amounted to 3.24%.

Consider `C=CC(=O)N1C[C@@H](C)O[C@@H](C)C1`, for which the Inhibition % was determined as 9.55%.

As to `CC1CCN(C(=O)CC2OCCCO2)CC1n1ccnc1` (stereo not shown), the Inhibition % stood at 9.65%.

As for `Cn1c(SC2CCOC2=O)nnc1-c1cccs1` (stereo not shown), the Inhibition % turned out to be 3.52%.

With `O=C(CCl)Nc1nc(-c2ccccc2)cs1`, the Inhibition % is listed as 17.9%.

As to `CCOc1cc(C)c(Cl)cc1S(=O)(=O)n1cnc(C)c1`, the Inhibition % came to 5.28%.

Take `Cc1ccc(C(=O)NNC(=O)CCl)cc1`: the Inhibition % is given as 5.44%.

In the case of `N#CN(CCN1CCCC1=O)c1ccc(F)c(Cl)c1`, the Inhibition % was -0.128%.

In the case of `O=C(C=Cc1ccnc2ccccc12)N1CCCSCC1`, the Inhibition % came to 5.8%.

Turning to `CC1(C)OB(c2cnn(C(F)(F)F)c2)OC1(C)C`, the Inhibition % is -0.114%.

On to `CN(C)c1nccc(CNCc2ccc(B(O)O)cc2)n1`, for which the Inhibition % is listed as -0.514%.

On to `N#Cc1cc(Oc2ccc(F)cc2)ncn1`, for which the Inhibition % is recorded as 6.16%.

Consider `CCC(NC(=O)c1cccnc1S)C1CCCO1` (stereo not shown), for which the Inhibition % is 12.2%.

`COc1ccc(OC(F)F)c(C=C(C#N)C(N)=O)c1`: the Inhibition % was -1.14%.

With `COc1ccc(C2CO2)cc1F` (stereo not shown), the Inhibition % was determined as 21.2%.

In the case of `CCN(C(=O)CCl)C1CC1`, the Inhibition % was 5.24%.

Turning to `COc1cnc(C#N)cc1OC`, the Inhibition % came out at 17%.

For `N#Cc1ccc(NC(=O)CN2CCSC2=O)cc1`, the Inhibition % is 5.37%.

`C=CC(=O)N1CCc2c(Cl)cc(F)cc2C1`: the Inhibition % is listed as 5.58%.

Regarding `C=CC(=O)N1CC(N2CCCC2=O)C1`, the Inhibition % is recorded as 5.93%.

Consider `CN(CC(=O)Nc1cccc(F)c1)c1ccc(C#N)nc1`, for which the Inhibition % amounted to 4%.

For `COc1ccccc1CNC(=O)n1ccnc1`, the Inhibition % is recorded as 5.2%.

In the case of `Cc1ccc(C2CO2)c(C)c1` (stereo not shown), the Inhibition % is on record as 7.16%.

As to `N#Cc1nccnc1N1CCC(CSc2ccccc2)C1` (stereo not shown), the Inhibition % is given as 3.14%.

As to `C=CC(=O)N1CCC(c2nccs2)C1` (stereo not shown), the Inhibition % is reported as 10%.

With `COc1ccc(N2CCN(CC3CO3)CC2)cc1` (stereo not shown), the Inhibition % is given as 12.9%.

For `Cc1nc(C=CC(=O)N2CCN(C)CC2C)cs1` (stereo not shown), the Inhibition % is 9.35%.

For the molecule `C=CC(=O)NC1CCN(C2CCOC2)CC1` (stereo not shown), the Inhibition % is recorded as 22%.

With `C=CC(=O)N(C)Cc1c(C)nc2sc(C)cn12`, the Inhibition % stood at 18.9%.

`Cc1nc(Cn2c(-c3ccccc3C)noc2=O)no1`: the Inhibition % turned out to be 5.1%.

Regarding `C=CC(=O)NC(C)(C)c1cn(C)nn1`, the Inhibition % came out at 11.2%.

The record behind these values is PMC9574860, “Chemical Toolkit for PARK7: Potent, Selective, and High-Throughput” (Journal of Medicinal Chemistry, 2022).
